# According to PubChem BioAssay AID493208 (National Center for Advancing Translational Sciences (NCATS), 2011):
# The whole screen tested about 44,000 compounds, of which about 340 (0.77%) were called active. Not shown: some 5% with an inconclusive outcome. Calls follow the shape of the dose curve; as a rule, active = well fitted inhibition curve with a large enough effect; inconclusive = small, poorly fitted or top-dose-only effect; inactive = flat fitted curve, though single readings scatter. The list shows a part of the results.
# Experiment: Acumen qHTS Assay for Inhibitors of the mTORC1 Signaling Pathway in MEF (Tsc2-/-, p53-/-) Cells: Sytravon;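 also: plate controls were DMSO for no effect and rapamycin for full effect; nearly all actives have a fitted effect of over 50% in size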
# Settings: phospho-rpS6 immunofluorescence/PI, 24 h; series mostly up to 38.3 µM; activity change, negative = inhibition: at the top concentration
# How it was run: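 Read-out: phospho-S6 Alexa-488 intensity over PI intensity per well, scored as % active cells using thresholds from rapamycin (7.5 nM) and DMSO controls. Tsc2-/-, p53-/- MEFs exposed to compound for 24 h; PI cell count recorded as viability.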
row,Compound,"activity change, negative = inhibition"
1,Cc1ccc(C(=O)Nc2cccc(-c3nc4cccnc4s3)c2C)cc1,inactive: 5.63%
2,Cc1cccc(CN2C(=O)c3ccccc3S(=O)(=O)c3ccc(C(=O)NCCC4=CCCCC4)cc32)c1,inactive: 0.995%
3,CCCN1CCN(CCNC(=O)Nc2ccc(OC)cc2OC)CC1,inactive: 3.16%
4,O=C(CC1C(=O)N(c2ccccc2)C(=O)N1CCC1=CCCCC1)Nc1ccc(F)cc1 (stereo not given),inactive: -1.81%
5,Cc1ccccc1NC(=O)CSc1nc(-c2ccccc2C)nc2cc(=O)[nH]n12,inactive: -5.6%
6,COCCNC(=O)Cn1nc(N2CCN(c3ccccc3OC)CC2)ccc1=O,inactive: -7.45%
7,CCOc1ccc(NC(=O)N2CCN(S(=O)(=O)c3ccc4c(ccn4C)c3)CC2)cc1,inactive: 0.895%
8,COc1ccccc1N(CC(=O)NCCSCc1ccccc1)S(=O)(=O)c1ccc(C)cc1,inactive: 6.86%
9,CC(=O)N1CCN(c2csc3ccc(F)cc3c2=O)CC1,inactive: -6.28%
10,CCc1ccc(C(=O)c2cn(CC(=O)Nc3ccc(F)cc3)c3ccc(OC)cc3c2=O)cc1,inactive: 0.378%
11,COc1ccc(NC(=O)Cn2c(=O)n(C(C)C)c(=O)c3oc4ccccc4c32)cc1Cl,inactive: -1.59%
12,O=C1CN(C(=O)Cc2ccc(F)cc2)C(c2ccccc2)c2cc(Cl)ccc2N1 (stereo not given),inactive: 0%
13,Cc1nn(-c2ccccc2)c(OC(=O)C(C)C)c1Sc1ccccc1,inactive: -0.98%
14,CCc1ccccc1N(C)C(=O)Cc1c(C(=O)O)c(C)cn1C,inactive: -3.78%
15,Brc1cccc(CNCCSc2nnnn2-c2ccccc2)c1,inactive: -0.501%
16,COc1ccc(-c2cc(C(C)=O)c(C)n2CCC(=O)NCc2ccccc2OC)cc1,inactive: 0.26%
17,Cc1cc(C)c(NC(=O)C(C)n2nc(-c3ccc(C)c(C)c3)ccc2=O)c(C)c1 (stereo not given),inactive: 0.438%
18,Cc1ccc(NC(=O)Cc2ccc(-n3c(C)nc4cccnc43)cc2)cc1C,inactive: -8.76%
19,Cc1cc(C)cc(OCC(=O)NCCc2nc3ccccc3[nH]2)c1,inactive: 5.1%
20,Cc1ccc(Cl)cc1NC(=O)C(C)n1nnc2sc(-c3ccccc3)cc2c1=O (stereo not given),inactive: 1.25%

row,Compound,"activity change, negative = inhibition"
1,CCOC(=O)c1cc(-c2ccccc2)n(CCCC(=O)Nc2ccc(C(C)C)cc2)c1C,inactive: -21.1%
2,CCCCOc1ccc(S(=O)(=O)Nc2ccc(-c3ccc(N4CCCCCC4)nn3)cc2)cc1,inactive: 0.0286%
3,COc1cccc(CNC(=O)CCc2cn(Cc3ccccc3Cl)c3ccccc23)c1,inactive: -3.71%
4,CCOC(=O)c1c(C)oc2ncnc(N3CCN(c4ccccc4OC)CC3)c12,inactive: 2.09%
5,COc1ccc(Cn2c(SCc3ccc(C(=O)NC4CCCC4)cc3)nc3ccncc32)cc1,inactive: -1.97%
6,COc1cc(OC)cc(C(=O)Nc2ccccc2-c2nc3ccccc3s2)c1,inactive: -2.71%
7,CN(C)c1ccc(C(CNC(=O)c2ccc(C(C)(C)C)cc2)N2CCOCC2)cc1 (stereo not given),inactive: 5.11%
8,COc1ccc2[nH]c(C)c(CCNS(=O)(=O)c3cc(F)ccc3OC)c2c1,inactive: -0.128%
9,CCCOc1cccc(C(=O)Nc2cccc(NC(=O)c3ccc(C(C)(C)C)cc3)c2)c1,inactive: -5.05%
10,COc1ccc(CCNC(=O)C2(c3cccs3)CCOCC2)cc1OC,inactive: -0.447%
11,CCOc1ccc(OC(=O)c2cn(-c3ccc(C)cc3)c(=O)c3ccccc23)cc1,inactive: -3.43%
12,COc1ccc(-c2nc3c4ccccc4n(CC(=O)Nc4cc(F)ccc4F)c(=O)n3n2)cc1,inactive: -0.427%
13,Cc1coc2cc3oc(=O)c(CCC(=O)NCc4ccc(Cl)cc4)c(C)c3cc12,inactive: 1.7%
14,COc1ccc(-c2cc(C(F)(F)F)n3nc(C(=O)Nc4cc(Cl)cc(Cl)c4)cc3n2)cc1,inactive: 1.12%
15,COc1cc(-c2ccno2)ccc1S(=O)(=O)N1CCN(c2ccc(C(C)=O)cc2)CC1,inactive: -10.5%
16,CCCCC(=O)Nc1ccccc1C(=O)OCc1cc(=O)n2nc(C3CCCCC3)sc2n1,inactive: 3.82%
17,CCOC(=O)C1CCN(C(=O)Cn2nc(C)n3c(cc4cc(F)ccc43)c2=O)CC1,inactive: -7.86%
18,COc1ccc(N2CCN(S(=O)(=O)CCNC(=O)Cc3ccc(Cl)cc3)CC2)cc1,inactive: -7.55%
19,CCn1cc(S(=O)(=O)c2cc(C)cc(C)c2)c(=O)c2cc(F)c(N3CCCC3)cc21,inactive: 2.87%
20,CCCCN1C(=O)CN(C2CCCCCC2)C(=O)C1c1ccc(OCCC)c(OC)c1 (stereo not given),inactive: -1.71%

row,Compound,"activity change, negative = inhibition"
1,CCOc1ccc(CCNC(=O)c2nnc(Cc3cc(OC)c(OC)c(OC)c3)o2)cc1OCC,inactive: 7.52%
2,Cc1ccccc1Cn1c(=O)n(Cc2ccc(Cl)cc2)c(=O)c2cccnc21,inactive: 1.4%
3,COc1cc(Cl)c(C)cc1NC(=O)c1sc2nc3n(c(=O)c2c1C)CCCCC3,inactive: -0.369%
4,COc1ccc(OC)c(NC(=O)CSC2=Nc3ccccc3C3=NC(CC(=O)NCc4ccc5c(c4)OCO5)C(=O)N23)c1 (stereo not given),inactive: -0.185%
5,CCOC(=O)c1c(NC(=O)c2nc(SC(C)C)ncc2Cl)sc2c1CCCC2,inactive: 0.999%
6,O=c1cc(N2CCN(c3ccc(F)cc3)CC2)[nH]c(=O)n1-c1ccc(Br)cc1,inactive: -1.69%
7,Cn1c(SCc2ccc(C(F)(F)F)cc2)nc2c([nH]c3ccccc32)c1=O,inactive: 1.57%
8,COc1cc(C(=O)NCC(c2cccnc2)N2CCc3ccccc32)cc(OC)c1OC (stereo not given),inactive: -4.42%
9,CN(C)c1ccc(C(CNS(=O)(=O)c2ccccc2)N2CCc3ccccc32)cc1 (stereo not given),inactive: 0%
10,COc1cc(NC(=O)N2CCC(CN3CCCC3)CC2)cc(OC)c1OC,inactive: 0.575%
11,CC(=O)c1c(C)oc2c(Cl)cc(NS(=O)(=O)c3ccc(Cl)cc3)cc12,inactive: -2.48%
12,CCN(CC)C(=O)Cn1c(=O)n(Cc2ccc(C(=O)NCc3ccccc3Cl)cc2)c(=O)c2ccccc21,inactive: -0.611%
13,COc1cc(C2C(=O)N(C3CCCCC3)CC(=O)N2Cc2ccc(C)cc2)ccc1OC(C)C (stereo not given),inactive: 2.46%
14,CCOC(=O)c1c(-c2ccc(Br)cc2)csc1NC(=O)c1ccccc1F,inactive: -0.271%
15,Cc1ccc2c(C)c(C(=O)N(Cc3ccc(Cl)cc3)C3CCS(=O)(=O)C3)oc2c1 (stereo not given),inactive: -2.34%
16,O=C1[C@@H]2CSC(c3ccc(C(F)(F)F)cc3)N2C(=O)N1c1ccccc1 (stereo not given in full),inactive: 1.5%
17,CCCNc1c(NC(=O)c2ccc(OCCC)cc2)c(=O)oc2ccccc12,inactive: -17.7%
18,O=C1CN(C(=O)c2ccccc2C(F)(F)F)C(c2ccccc2)c2cc(F)ccc2N1 (stereo not given),inactive: 0.0315%
19,COc1cc2c(cc1OC)C(COc1ccc3c(C)cc(=O)oc3c1)N(C(=O)c1ccc(Cl)cc1)CC2 (stereo not given),inactive: -19.9%
20,CCC(C)(C)C1CCc2c(sc(NC(=O)C3c4ccccc4Oc4ccccc43)c2C(N)=O)C1 (stereo not given),inactive: -0.925%
